We go through five molecules from paper PMC9303297, “Characterization of an autonomous pathway complex that promotes flowering in Arabidopsis” (Nucleic Acids Research, 2022).

No constants are given. Whether binding was seen depends on the method and setting. Some entries that bind do so weakly or less than the wild type. Sequences can lack the tags named with a protein.

The target of test [1] is T1, LD, full-length, yeast two-hybrid fusion (Arabidopsis thaliana) (UniProt Q38796).
T1 sequence: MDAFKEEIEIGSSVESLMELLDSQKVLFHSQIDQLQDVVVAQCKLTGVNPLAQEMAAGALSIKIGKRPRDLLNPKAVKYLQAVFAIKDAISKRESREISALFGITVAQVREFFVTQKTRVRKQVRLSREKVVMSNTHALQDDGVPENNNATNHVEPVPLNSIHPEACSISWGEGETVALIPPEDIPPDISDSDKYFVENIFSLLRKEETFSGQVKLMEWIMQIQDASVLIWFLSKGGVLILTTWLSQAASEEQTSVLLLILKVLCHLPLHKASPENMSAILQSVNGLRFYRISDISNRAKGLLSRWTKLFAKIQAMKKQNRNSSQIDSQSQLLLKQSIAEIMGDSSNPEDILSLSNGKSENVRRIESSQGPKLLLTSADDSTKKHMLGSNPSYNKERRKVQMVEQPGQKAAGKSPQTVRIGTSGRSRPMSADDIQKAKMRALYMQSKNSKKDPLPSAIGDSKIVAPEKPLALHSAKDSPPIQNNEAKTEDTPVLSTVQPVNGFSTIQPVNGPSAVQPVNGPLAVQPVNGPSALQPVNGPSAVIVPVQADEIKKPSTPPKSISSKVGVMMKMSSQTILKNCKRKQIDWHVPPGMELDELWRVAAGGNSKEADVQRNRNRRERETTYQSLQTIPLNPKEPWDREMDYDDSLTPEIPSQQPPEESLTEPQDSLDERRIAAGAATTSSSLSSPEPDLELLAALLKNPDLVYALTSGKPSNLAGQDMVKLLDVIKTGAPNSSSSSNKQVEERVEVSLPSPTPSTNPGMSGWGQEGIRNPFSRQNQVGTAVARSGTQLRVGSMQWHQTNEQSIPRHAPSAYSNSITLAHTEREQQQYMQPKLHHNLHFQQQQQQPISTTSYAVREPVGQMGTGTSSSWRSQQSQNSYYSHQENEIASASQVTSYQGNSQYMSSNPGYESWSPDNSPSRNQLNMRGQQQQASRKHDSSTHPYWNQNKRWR
Description: two-hybrid; GAL4 AD (pGADT7, AH109) and BD (pGBKT7, Y187) fusions, mated; growth on SD-Leu/Trp/His, 3-amino-1,2,4-triazole to reduce background.

In test [2] the target is T2, SDG26, full-length, yeast two-hybrid fusion (Arabidopsis thaliana) (UniProt Q84WW6).
T2 sequence: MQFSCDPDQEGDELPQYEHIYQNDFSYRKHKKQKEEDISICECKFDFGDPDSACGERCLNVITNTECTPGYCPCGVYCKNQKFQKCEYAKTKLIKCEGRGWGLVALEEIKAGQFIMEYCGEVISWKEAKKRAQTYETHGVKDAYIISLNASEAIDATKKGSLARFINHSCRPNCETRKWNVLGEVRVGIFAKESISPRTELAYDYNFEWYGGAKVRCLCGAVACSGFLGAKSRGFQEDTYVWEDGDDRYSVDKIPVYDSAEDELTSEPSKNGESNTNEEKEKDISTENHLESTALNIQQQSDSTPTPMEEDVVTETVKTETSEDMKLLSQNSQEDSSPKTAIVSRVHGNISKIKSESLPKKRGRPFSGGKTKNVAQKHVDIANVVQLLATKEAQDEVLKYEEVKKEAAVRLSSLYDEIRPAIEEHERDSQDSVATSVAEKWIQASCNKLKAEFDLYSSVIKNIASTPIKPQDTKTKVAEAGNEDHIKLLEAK
Described as above.

B1: FLD, full-length, yeast two-hybrid fusion (protein, UniProt Q9CAE3 1-789)
chain: MVSFSAPKKRRRGRSQRSMSSLNSLPVPNVGLLPGNSNFVSSSASSSGRFNVEVVNGSNQTVKSYPGIGDEIITINKEATTEALLALTAGFPADSLTEEEIEFGVVPIVGGIEQVNYILIRNHIISKWRENISSWVTKEMFLNSIPKHCSSLLDSAYNYLVTHGYINFGIAQAIKDKFPAQSSKSSVIIVGAGLSGLAAARQLMRFGFKVTVLEGRKRPGGRVYTKKMEANRVGAAADLGGSVLTGTLGNPLGIIARQLGSSLYKVRDKCPLYRVDGKPVDPDVDIKVEVAFNQLLDKASKLRQLMGDVSMDVSLGAALETFRQVSGNDVATEEMGLFNWHLANLEYANAGLVSKLSLAFWDQDDPYDMGGDHCFLPGGNGRLVQALAENVPILYEKTVQTIRYGSNGVKVTAGNQVYEGDMVLCTVPLGVLKNGSIKFVPELPQRKLDCIKRLGFGLLNKVAMLFPYVFWSTDLDTFGHLTEDPNYRGEFFLFYSYAPVAGGALLIALVAGEAAHKFETMPPTDAVTRVLHILRGIYEPQGINVPDPLQTVCTRWGGDPFSLGSYSNVAVGASGDDYDILAESVGDGRLFFAGEATTRRYPATMHGAFVTGLREAANMAQSAKARGIRKRIDRNPSRNAHSCAILLADLFRDPDLEFGSFCIIFSRRNPDPKSPAILRVTLSEPRKRNEDPKADQHSNKILFQQLQSHFNQQQQIQVYTLLTRQQALDLREVRGGDEKRLYYLCETLGVKLVGRKGLGVGADSVIASIKAERTGRKLPSSSTSGTKSG
In the case of B1, the binding entry in test [1] is given as “binds”.

B2: EFL4, full-length, yeast two-hybrid fusion (protein, UniProt Q570U6 1-114)
chain: MEGDVLSGFGDRHNMDGKLLQSFQKSFVDVQDILDQNRLLINEINQNHESKQPDNLGRNVGLIKELNNNIRRVASLYGDLSHSFARSVDASSEGESSGTLKSDGKANQKRFRSG
Turning to B2, the binding entry in test [2] and in test [1] was “binds” each time.

B3: EFL1, full-length, yeast two-hybrid fusion (protein, UniProt O80877 1-125)
chain: MEASRNRSLVGNNRSPEMNENDGEDVAASAAVEDVEVWDTLSNGFKRAQLYLDQNRDLIQRVNENHMSRIPDNVSRNVGLINEINGNISQVMEIYSDLSLNFAKKFDQRRRTTKDGDTTTTTTGS
With B3, the binding entry in test [2] is reported as “no binding”.

B4: EFL3, full-length, yeast two-hybrid fusion (protein, UniProt Q8S8F5 1-109)
chain: MEGDTISRMMGSGVQMDGKILQTFEKSFVQVQNILDHNRLLINEINQNHESKIPDNLGRNVGLIRELNNNVRRVAHLYVDLSNNFSKSMEASSEGDSSEGRGNRRIRPA
B4: the binding entry in test [2] was “no binding”.

B5: EFL2, full-length, yeast two-hybrid fusion (protein, UniProt Q94BS8 1-119)
chain: MESRMEGDVYSGFGERYQMDGKLLQNFQKSFVQVQDILDQNRLLINEINQNHESKQADHLGRNVGLIRELNNNIRTVASLYGDLSHSFARSVDASSEGESTGTLKSDGKANNQKRFRSG
With B5, the binding entry in test [2] and in test [1] was “binds” throughout.
